Test results: the antibiotic and cytotoxicity screens of Wong et al. (2023)
This is one part of the list.

system: HSkMC (human skeletal muscle cells); assay: cytotoxicity call (relative viability < 0.9); settings: 10 µM

SMILES | cytotoxicity call
Cc1ccc(S(=O)(=O)Nc2cccc3c2O[C@@H](CN(C)S(=O)(=O)c2cccs2)[C@@H](C)CN([C@H](C)CO)C3=O)cc1 | inactive
C[C@@H]1CN([C@H](C)CO)C(=O)c2cccc(NC(=O)Nc3cccc4ccccc34)c2O[C@H]1CN(C)S(=O)(=O)c1cccs1 | inactive
Cc1noc(C)c1NC(=O)Nc1cccc2c1O[C@H](CN(C)S(C)(=O)=O)[C@H](C)CN([C@H](C)CO)C2=O | inactive
C[C@@H]1CN([C@H](C)CO)C(=O)c2cc(NC(=O)C3CCCCC3)ccc2O[C@@H]1CN(C)Cc1ccc(C(F)(F)F)cc1 | inactive
C[C@@H]1CCCCO[C@H](CN(C)Cc2ccc(Cl)c(Cl)c2)[C@H](C)CN([C@@H](C)CO)C(=O)c2cc(NC(=O)Cc3ccccc3)ccc2O1 | inactive
Cc1noc(C)c1NC(=O)N(C)C[C@H]1Oc2ccc(NS(=O)(=O)c3cn(C)cn3)cc2C(=O)N([C@H](C)CO)C[C@@H]1C | inactive
C[C@@H]1CN([C@H](C)CO)C(=O)c2cc(NC(=O)c3ccncc3)ccc2O[C@H]1CN(C)Cc1ccncc1 | inactive
COc1ccc(CN(C)C[C@H]2OCCCC[C@@H](C)Oc3ccc(NC(=O)Nc4ccc(F)cc4)cc3C(=O)N([C@@H](C)CO)C[C@@H]2C)cc1 | inactive
COCC#Cc1cnc2c(c1)C(=O)N([C@@H](C)CO)C[C@H](C)[C@@H](CN(C)C(=O)CN1CCOCC1)O2 | inactive
C#CCN1C(=O)C[C@H](O)C1=O | inactive
C[C@@H]1CN([C@@H](C)CO)C(=O)c2cc(NC(=O)CCCN(C)C)ccc2O[C@H]1CN(C)Cc1ccc(C(=O)O)cc1 | inactive
C[C@H](CO)N1C[C@H](C)[C@@H](CN(C)C(=O)Nc2ccccc2)Oc2ccc(NS(=O)(=O)c3cn(C)cn3)cc2CC1=O | inactive
O=C1NC(=O)[C@H]2CC[C@H]2N1 | inactive
C[C@@H](N)CCP(=O)(O)O | inactive
C(=C\c1ccncc1)/c1ccncc1 | inactive
C[C@H](CO)N1C[C@H](C)[C@@H](CN(C)C(=O)Cc2ccccn2)Oc2cc(C#Cc3ccccc3)ccc2S1(=O)=O | inactive
COc1ccc(CN(C)C[C@H]2OCCCC[C@H](C)Oc3ccc(NC(=O)CCC(F)(F)F)cc3C(=O)N([C@H](C)CO)C[C@H]2C)cc1 | inactive

SMILES | cytotoxicity call
C[C@@H]1CN([C@H](C)CO)C(=O)Cc2cc(NS(C)(=O)=O)ccc2O[C@@H]1CN(C)S(=O)(=O)c1ccc(F)cc1 | inactive
C[C@H]1CN([C@@H](C)CO)C(=O)Cc2cc(NC(=O)Nc3ccc(F)cc3)ccc2O[C@H]1CN(C)S(=O)(=O)c1ccc(Oc2ccccc2)cc1 | inactive
C[C@H](CO)N1C[C@H](C)[C@H](CN(C)S(=O)(=O)c2cccs2)Oc2ccc(NC(=O)Cc3ccccc3)cc2CC1=O | inactive
CCn1nc(C)cc1C(=O)NN | inactive
COc1ccc(CN(C)C[C@@H]2Oc3ccc(NS(=O)(=O)c4cn(C)cn4)cc3CC(=O)N([C@@H](C)CO)C[C@H]2C)cc1 | inactive
NCc1cccc(-c2ccccc2)c1 | inactive
Cc1ccc(S(=O)(=O)Nc2ccc3c(c2)C(=O)N([C@@H](C)CO)C[C@H](C)[C@@H](CN(C)C(=O)C2CCCCC2)OCCCC[C@@H](C)O3)cc1 | inactive
N[C@@H]1CONC1=O | inactive
NCC[C@H]1CC[C@@H](NC(=O)NC2CCCCC2)[C@@H](CO)O1 | inactive
CCCC(=O)Nc1ccc2c(c1)C(=O)N(C)C[C@H](OC)[C@H](C)CN(S(=O)(=O)c1cn(C)cn1)[C@@H](C)CO2 | inactive
COCC(=O)N(C)C[C@H]1Oc2cc(-c3ccc(OC)cc3)ccc2S(=O)(=O)N([C@@H](C)CO)C[C@H]1C | inactive
O=C(C[C@@H]1CC[C@H](NS(=O)(=O)c2ccc(F)cc2)[C@@H](CO)O1)N1CCC(Cc2ccccc2)CC1 | inactive
C[C@H](CO)N1C[C@H](C)[C@@H](CN(C)Cc2ccncc2)Oc2c(NC(=O)c3cnccn3)cccc2C1=O | inactive
C[C@H](CO)N1C[C@H](C)[C@@H](CN(C)C(=O)NC2CCCCC2)OCCCC[C@H](C)Oc2ccc(NS(=O)(=O)c3ccc(Cl)cc3)cc2C1=O | inactive
Cc1ccc2ncccc2c1 | inactive
C[C@H](CO)N1C[C@H](C)[C@@H](CN(C)Cc2ccc3c(c2)OCO3)Oc2ccc(NC(=O)Cn3cnnn3)cc2C1=O | inactive
CN(C)c1ccc([C@@H](CN)N2CCc3ccccc3C2)cc1 | inactive
